Where two headings read alike, the source gives them in different places.
Key:
Experiment in all cases: cells
[1] = test system: MiaPaCa-2; set-up: ATPlite luminescence viability of PDAC cell lines, 11-dose single-agent curves, 4-parameter fit; conditions: Homo sapiens, MIA PaCa-2, 72 h, read-out: EC50 [nM]
Experimental: (§1) Afterward, small amounts were transferred to 384-well intermediate plates (Greiner Bio-One GmbH, Germany). […] For drug combination screening, 1000 to 5000 cells were seeded into 384-well plates (CulturPlate™, Perkin Elmer, MA, USA) using a Multidrop™ Combi Reagent Dispenser (Thermo Scientific, MA, USA) in 50 µl medium per well 24 h prior to drug treatment (seeding densities see Appendix Table S1). […] The final DMSO concentration in each well was 0.2%. […] Eight wells per plate without library drug served as negative controls, and sixteen wells per plate containing 5 µM Staurosporine served as positive controls. […] Next, we analyzed the drug sensitivity of immortalized duct cell line HPDE to detect effects unrelated to pancreatic cancer.

[2] = test system: Dan-G; set-up: ATPlite luminescence viability of PDAC cell lines, 11-dose single-agent curves, 4-parameter fit; conditions: 72 h, read-out: EC50 [nM]
Experimental: as §1

[3] = test system: AsPC-1; set-up: ATPlite luminescence viability of PDAC cell lines, 11-dose single-agent curves, 4-parameter fit; conditions: Homo sapiens, ASPC1, 72 h, read-out: EC50 [nM]
Experimental: as §1

[4] = test system: Capan-1; set-up: ATPlite luminescence viability of PDAC cell lines, 11-dose single-agent curves, 4-parameter fit; conditions: Homo sapiens, CAPAN-1, 72 h, read-out: EC50 [nM]
Experimental: as §1

[5] = test system: HuP-T4; set-up: ATPlite luminescence viability of PDAC cell lines, 11-dose single-agent curves, 4-parameter fit; conditions: Homo sapiens, HuP-T4, 72 h, read-out: EC50 [nM]
Experimental: as §1

[6] = test system: BxPC-3; set-up: ATPlite luminescence viability of PDAC cell lines, 11-dose single-agent curves, 4-parameter fit; conditions: Homo sapiens, BXPC-3, 72 h, read-out: EC50 [nM]
Experimental: as §1

[7] = test system: FAMPAC; set-up: ATPlite luminescence viability of PDAC cell lines, 11-dose single-agent curves, 4-parameter fit; conditions: 72 h, read-out: EC50 [nM]
Experimental: as §1

[8] = test system: Suit2-07; set-up: ATPlite luminescence viability of PDAC cell lines, 11-dose single-agent curves, 4-parameter fit; conditions: 72 h, read-out: EC50 [nM]
Experimental: as §1

[9] = test system: PaTu-8988-T; set-up: ATPlite luminescence viability of PDAC cell lines, 11-dose single-agent curves, 4-parameter fit; conditions: Homo sapiens, PaTu 8988t, 72 h, read-out: EC50 [nM]
Experimental: as §1

[10] = test system: PSN-1; set-up: ATPlite luminescence viability of PDAC cell lines, 11-dose single-agent curves, 4-parameter fit; conditions: Homo sapiens, PSN1, 72 h, read-out: EC50 [nM]
Experimental: as §1

[11] = test system: MiaPaCa-2; set-up: Viability of PDAC cell lines, ATPlite luminescence, 11-dose single-agent curve fit; conditions: Homo sapiens, MIA PaCa-2, 72 h, read-out: EC50 [nM]
Experimental: as §1

[12] = test system: Colo-357; set-up: Viability of PDAC cell lines, ATPlite luminescence, 11-dose single-agent curve fit; conditions: Homo sapiens, COLO357, 72 h, read-out: EC50 [nM]
Experimental: as §1

[13] = test system: PANC-1; set-up: Viability of PDAC cell lines, ATPlite luminescence, 11-dose single-agent curve fit; conditions: Homo sapiens, PANC-1, 72 h, read-out: EC50 [nM]
Experimental: as §1

[14] = test system: Dan-G; set-up: Viability of PDAC cell lines, ATPlite luminescence, 11-dose single-agent curve fit; conditions: 72 h, read-out: EC50 [nM]
Experimental: as §1

[15] = test system: AsPC-1; set-up: Viability of PDAC cell lines, ATPlite luminescence, 11-dose single-agent curve fit; conditions: Homo sapiens, ASPC1, 72 h, read-out: EC50 [nM]
Experimental: as §1

[16] = test system: Capan-1; set-up: Viability of PDAC cell lines, ATPlite luminescence, 11-dose single-agent curve fit; conditions: Homo sapiens, CAPAN-1, 72 h, read-out: EC50 [nM]
Experimental: as §1

[17] = test system: HPDE; set-up: Viability of PDAC cell lines, ATPlite luminescence, 11-dose single-agent curve fit; conditions: HPDE, 72 h, read-out: EC50 [nM]
Experimental: as §1

[18] = test system: HuP-T4; set-up: Viability of PDAC cell lines, ATPlite luminescence, 11-dose single-agent curve fit; conditions: Homo sapiens, HuP-T4, 72 h, read-out: EC50 [nM]
Experimental: as §1

[19] = test system: BxPC-3; set-up: Viability of PDAC cell lines, ATPlite luminescence, 11-dose single-agent curve fit; conditions: Homo sapiens, BXPC-3, 72 h, read-out: EC50 [nM]
Experimental: as §1

[20] = test system: FAMPAC; set-up: Viability of PDAC cell lines, ATPlite luminescence, 11-dose single-agent curve fit; conditions: 72 h, read-out: EC50 [nM]
Experimental: as §1

[21] = test system: Suit2-07; set-up: Viability of PDAC cell lines, ATPlite luminescence, 11-dose single-agent curve fit; conditions: 72 h, read-out: EC50 [nM]
Experimental: as §1

[22] = test system: PaTu-8988-T; set-up: Viability of PDAC cell lines, ATPlite luminescence, 11-dose single-agent curve fit; conditions: Homo sapiens, PaTu 8988t, 72 h, read-out: EC50 [nM]
Experimental: as §1

[23] = test system: PSN-1; set-up: Viability of PDAC cell lines, ATPlite luminescence, 11-dose single-agent curve fit; conditions: Homo sapiens, PSN1, 72 h, read-out: EC50 [nM]
Experimental: as §1

[24] = test system: Colo-357; set-up: ATPlite luminescence viability of PDAC cell lines, 11-dose single-agent curves, 4-parameter fit; conditions: Homo sapiens, COLO357, 72 h, read-out: EC50 [nM]
Experimental: as §1

EC50 [1]	EC50 [3]	EC50 [6]	EC50 [13]	SMILES	EC50 [2]	EC50 [4]	EC50 [7]	EC50 [8]	EC50 [10]	also measured
> 10000 nM	> 10000 nM	> 10000 nM	–	CNC(=O)c1ccccc1Sc1ccc2c(/C=C/c3ccccn3)n[nH]c2c1 [Axitinib]	6780 nM	7560 nM	> 10000 nM	> 10000 nM	> 10000 nM	EC50 [5]: > 10000 nM; EC50 [9]: > 10000 nM
–	–	–	33 nM	CCS(=O)(=O)N1CC(CC#N)(n2cc(-c3ncnc4[nH]ccc34)cn2)C1 [Baricitinib]	–	–	–	–	–	EC50 [11]: 4100 nM; EC50 [12]: 43.8 nM; EC50 [14]: 432 nM; EC50 [15]: 3940 nM; EC50 [16]: 32.2 nM; EC50 [17]: 69 nM; EC50 [18]: 3890 nM; EC50 [19]: 145 nM; EC50 [20]: > 10000 nM; EC50 [21]: 1390 nM; EC50 [22]: 4800 nM; EC50 [23]: 5190 nM
338 nM	1020 nM	249 nM	338 nM	CO[C@@H]1[C@H](N(C)C(=O)c2ccccc2)C[C@H]2O[C@]1(C)n1c3ccccc3c3c4c(c5c6ccccc6n2c5c31)C(=O)NC4 [Midostaurin]	390 nM	706 nM	345 nM	491 nM	230 nM	EC50 [24]: 637 nM
